Laboratory results published in patent publication US12473298B2, “Amide compounds, preparation method therefor, and use thereof in the medical field” (Shanghai Synergy Pharmaceutical Sciences Co., Ltd., priority 2019, dated 2025).
Read-outs that look alike come from different tables or passages of the source.

Columns and labels:
[1] = Pharmacokinetic experiment in rats; assay type: in vivo, SD rats; conditions: for AUC / Cmax / bioavailability: male, SD, rat, plasma; for AUC: read-out: Area Curve (AUC, ng/mL · h); for half-life: male, SD, rat, plasma; rats, Intravenous-Dose 4 mg/kg; read-out: Half life T1/2, h) (converted); for Cmax: read-out: Blood Drug level (Cmax, ng/mL); for bioavailability: read-out: Bioavailability (P %)
Experimental: A certain amount of compound was weighted and dissolved in 0.1% Tween under vortex and ultrasound, and 0.5% carboxymethyl cellulose sodium (CMC-NA) solution was added to form a uniform solution.

[2] = system: human diffuse large B-cell lymphoma cells (WSU-DLCL2 cell); experiment: Pharmacodynamic experiment, WSU-DLCL2 transplanted tumor model in mice; assay type: in vivo, mice (CB17/SCID); conditions: for inhibited tumor growth: 150 mg/kg, intragastrically, twice a day for 21 days; for inhibition in vivo at 150 mg/kg: Mus musculus, WSUDLCL2, po, 504 h, read-out: inhibited tumor growth
[3] = system: human diffuse large cell lymphoma B lymphocytes (Pfeiffer cell); experiment: Pfeiffer cell proliferation, Calcein AM staining; assay type: cell-based
[4] = system: human diffuse large B-cell lymphoma cells (Karpas 422 cell); experiment: Karpas 422 cell proliferation, Calcein AM staining; assay type: cell-based
Mutant type EZH2(A677G) = Mutant type EZH2(A677G) (Homo sapiens (Human), UniProt Q15910, A677G); experiment: AlphaLISA, mutant type PRC2 complex EZH2(A677G); assay type: biochemical; conditions: read-out: Mutant type EZH2(A677G) IC59 Nanomoles per Liter
Chain of Mutant type EZH2(A677G) (Q15910 whole entry A677G): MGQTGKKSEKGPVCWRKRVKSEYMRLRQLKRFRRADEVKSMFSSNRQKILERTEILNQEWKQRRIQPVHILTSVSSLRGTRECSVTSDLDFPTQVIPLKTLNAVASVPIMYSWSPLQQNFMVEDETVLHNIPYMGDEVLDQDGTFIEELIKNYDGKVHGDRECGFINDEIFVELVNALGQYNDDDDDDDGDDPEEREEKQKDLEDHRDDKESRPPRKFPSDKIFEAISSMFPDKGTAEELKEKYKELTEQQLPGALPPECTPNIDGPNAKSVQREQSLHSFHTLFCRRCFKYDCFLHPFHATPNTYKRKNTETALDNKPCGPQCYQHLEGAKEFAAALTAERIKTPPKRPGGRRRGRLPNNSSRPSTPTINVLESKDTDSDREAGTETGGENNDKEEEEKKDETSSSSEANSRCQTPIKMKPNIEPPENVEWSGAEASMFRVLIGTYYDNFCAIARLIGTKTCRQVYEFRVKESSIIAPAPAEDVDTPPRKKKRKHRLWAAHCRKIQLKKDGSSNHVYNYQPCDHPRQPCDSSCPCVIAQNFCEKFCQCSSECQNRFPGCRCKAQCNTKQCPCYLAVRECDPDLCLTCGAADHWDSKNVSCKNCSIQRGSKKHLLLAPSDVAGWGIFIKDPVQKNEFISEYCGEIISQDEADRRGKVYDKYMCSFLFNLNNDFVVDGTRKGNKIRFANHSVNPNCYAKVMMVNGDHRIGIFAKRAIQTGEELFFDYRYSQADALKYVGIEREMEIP
Chain of Mutant type EZH2(A677G) (O75530 whole entry partner): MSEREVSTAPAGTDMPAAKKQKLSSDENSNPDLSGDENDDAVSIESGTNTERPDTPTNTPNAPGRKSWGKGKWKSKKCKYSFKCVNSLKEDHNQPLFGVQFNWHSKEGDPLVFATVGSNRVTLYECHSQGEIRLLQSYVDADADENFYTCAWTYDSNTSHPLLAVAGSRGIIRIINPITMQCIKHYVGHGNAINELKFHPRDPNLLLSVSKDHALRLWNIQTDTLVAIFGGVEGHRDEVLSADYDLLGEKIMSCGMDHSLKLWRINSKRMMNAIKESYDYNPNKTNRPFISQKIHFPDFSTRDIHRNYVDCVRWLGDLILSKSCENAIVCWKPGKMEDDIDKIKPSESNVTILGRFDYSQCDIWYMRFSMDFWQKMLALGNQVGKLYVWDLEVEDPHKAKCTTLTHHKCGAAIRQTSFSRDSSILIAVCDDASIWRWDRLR
Chain of Mutant type EZH2(A677G) (Q15022 whole entry partner): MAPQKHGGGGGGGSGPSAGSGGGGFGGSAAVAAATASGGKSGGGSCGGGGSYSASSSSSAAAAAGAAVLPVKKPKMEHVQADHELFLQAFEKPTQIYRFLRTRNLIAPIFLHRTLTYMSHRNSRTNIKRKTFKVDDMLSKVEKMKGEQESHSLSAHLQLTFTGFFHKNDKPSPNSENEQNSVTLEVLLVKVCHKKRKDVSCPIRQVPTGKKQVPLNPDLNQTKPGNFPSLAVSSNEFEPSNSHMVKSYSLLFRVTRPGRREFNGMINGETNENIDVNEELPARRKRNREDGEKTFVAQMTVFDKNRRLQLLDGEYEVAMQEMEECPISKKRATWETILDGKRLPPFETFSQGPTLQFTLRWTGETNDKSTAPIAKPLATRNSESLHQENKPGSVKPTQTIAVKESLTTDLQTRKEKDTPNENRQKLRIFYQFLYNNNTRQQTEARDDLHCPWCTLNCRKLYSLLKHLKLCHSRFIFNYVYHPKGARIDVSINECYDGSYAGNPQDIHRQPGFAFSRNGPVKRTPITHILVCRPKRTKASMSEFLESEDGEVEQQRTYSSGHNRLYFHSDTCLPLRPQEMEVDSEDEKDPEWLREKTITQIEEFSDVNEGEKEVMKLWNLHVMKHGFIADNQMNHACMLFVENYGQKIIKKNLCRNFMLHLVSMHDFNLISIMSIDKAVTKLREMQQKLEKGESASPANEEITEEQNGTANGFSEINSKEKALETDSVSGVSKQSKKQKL
Chain of Mutant type EZH2(A677G) (Q09028 whole entry partner): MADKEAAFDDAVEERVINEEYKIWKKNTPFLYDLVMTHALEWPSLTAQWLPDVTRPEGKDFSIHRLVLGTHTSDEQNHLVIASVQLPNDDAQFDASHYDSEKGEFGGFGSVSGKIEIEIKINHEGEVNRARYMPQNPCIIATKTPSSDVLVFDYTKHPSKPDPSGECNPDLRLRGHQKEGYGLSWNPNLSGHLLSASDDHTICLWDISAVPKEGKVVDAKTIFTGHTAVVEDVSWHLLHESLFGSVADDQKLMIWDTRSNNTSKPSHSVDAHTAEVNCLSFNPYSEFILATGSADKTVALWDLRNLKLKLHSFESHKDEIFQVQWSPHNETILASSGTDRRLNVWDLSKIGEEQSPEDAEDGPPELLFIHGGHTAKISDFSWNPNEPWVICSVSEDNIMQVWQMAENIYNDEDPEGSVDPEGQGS
Chain of Mutant type EZH2(A677G) (Q6ZN18 whole entry partner): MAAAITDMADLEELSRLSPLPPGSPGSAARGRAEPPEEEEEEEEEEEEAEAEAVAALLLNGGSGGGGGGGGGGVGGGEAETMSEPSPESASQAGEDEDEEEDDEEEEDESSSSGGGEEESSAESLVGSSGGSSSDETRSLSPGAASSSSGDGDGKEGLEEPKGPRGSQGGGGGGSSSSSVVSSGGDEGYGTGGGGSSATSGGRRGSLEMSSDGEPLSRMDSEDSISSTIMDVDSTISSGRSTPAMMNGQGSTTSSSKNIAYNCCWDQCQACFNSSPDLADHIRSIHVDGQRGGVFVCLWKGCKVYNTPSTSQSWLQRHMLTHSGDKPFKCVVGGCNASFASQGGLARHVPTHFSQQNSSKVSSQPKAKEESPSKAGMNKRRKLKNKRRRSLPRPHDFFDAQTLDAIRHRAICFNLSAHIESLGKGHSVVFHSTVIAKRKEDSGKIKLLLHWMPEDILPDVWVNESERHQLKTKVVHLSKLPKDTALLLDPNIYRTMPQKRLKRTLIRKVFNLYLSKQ

[5] = rats, oral 20 mg/kg vs intravenous 4 mg/kg
[6] = Homo sapiens, Pfeiffer, read-out: Pfeiffer Proliferation IC50 Nanomoles per Liter (nM)
[7] = KARPAS-422, read-out: Karpas422 Proliferation IC50 Nanomoles per Liter (nM)
[8] = Homo sapiens, Pfeiffer, data of 14th day, read-out: Pfeiffer Proliferation IC50 Nanomoles per Liter
[9] = KARPAS-422, data of 14th day, read-out: Karpas422 Proliferation IC50 Nanomoles per Liter
[10] = data of 14th day, read-out: Pfeiffer Proliferation IC50 Nanomoles per Liter

For “3-(ethyl(tetrahydro-2H-pyran-4-yl)amino)-5-(6-fluoro-2′,3′,5′,6′-tetrahydrospiro[indene-1,4′-pyran]-5-yl)-N-((4-methoxy-6-methyl-2-oxo-1,2-dihydropyridin-3-yl)methyl)-2-methylbenzamide 8-1 and 3-(ethyl(tetrahydro-2H-pyran-4-yl)amino)-5-(5-fluoro-2′,3′,5′,6′-tetrahydrospiro[indene-1,4′-pyran]-6-yl)-N-((4-methoxy-6-methyl-2-oxo-1,2-dihydropyridin-3-yl)methyl)-2-methylbenzamide 8-2 [Example 8]”, the “Area Curve (AUC, ng/mL · h)” value ([1]; rats, Intravenous-Dose 4 mg/kg) was 997.34 ng·h/mL, the “Half life T1/2, h)” value ([1]; rats, Intravenous-Dose 4 mg/kg) was 1.07 h and the “Area Curve (AUC, ng/mL · h)” value ([1]; rats, Oral-Dose 20 mg/kg) was 1556.85 ng·h/mL. For the same compound, the “Blood Drug level (Cmax, ng/mL)” value ([1]; rats, Oral-Dose 20 mg/kg) was 454.90 ng/mL, the “Bioavailability (P %)” value [1, 5] was 31.22% and the inhibited tumor growth [2] was 84%.
For `CCCN1C(=O)C2(CCOCC2)c2ccc(-c3cc(C(=O)NCc4c(C)cc(C)[nH]c4=O)c(C)c(N(CC)C4CCOCC4)c3)cc21` [Example 19], the IC50 [3, 6] was 0.15 nM, the IC50 [4, 7] was 1.12 nM and the AUC ([1]; rats, Intravenous-Dose 4 mg/kg) was 995 ng·h/mL. For the same compound, the half-life [1] was 1.72 h, the AUC ([1]; rats, Oral-Dose 20 mg/kg) was 1780 ng·h/mL and the Cmax ([1]; rats, Oral-Dose 20 mg/kg) was 430 ng/mL. It also gave a bioavailability [1, 5] of 35.7% and an inhibition in vivo at 150 mg/kg [2] of 89%.
`CCN(c1cc(-c2cc3c(cc2F)C2(CCOCC2)CC3)cc(C(=O)NCc2c(C)cc(C)[nH]c2=O)c1C)C1CCOCC1` [Example 23] gave an IC50 [3, 8] of 2.39 nM and an IC50 [4, 9] of 2.98 nM.
In the case of `CCN(c1cc(-c2ccc3c(c2)N(C(C)C)CC32CCOCC2)cc(C(=O)NCc2c(C)cc(C)[nH]c2=O)c1C)C1CCOCC1` [Example 25], the AUC ([1]; rats, Intravenous-Dose 4 mg/kg) is reported as 1020 ng·h/mL, the half-life [1] is reported as 1.81 h and the AUC ([1]; rats, Oral-Dose 20 mg/kg) is reported as 1730 ng·h/mL. It also gave a Cmax ([1]; rats, Oral-Dose 20 mg/kg) of 590 ng/mL, a bioavailability [1, 5] of 33.7% and an inhibition in vivo at 150 mg/kg [2] of 87%.
For `CCN(c1cc(-c2ccc3c(c2)CCC32CCN(CC(F)(F)F)CC2)cc(C(=O)NCc2c(OC)cc(C)[nH]c2=O)c1C)C1CCOCC1` [Example 36], the IC50 [3, 10] was 1.54 nM.
Work on `CCN(c1cc(-c2ccc3c(c2)CCC32CCN(CC(F)(F)C(F)(F)F)CC2)cc(C(=O)NCc2c(OC)cc(C)[nH]c2=O)c1C)C1CCOCC1` [Example 42] yielded an IC50 (Mutant type EZH2(A677G)) of 0.49 nM and an IC50 [3, 10] of 1.27 nM.
For `CCCN1C(=O)C2(CCOCC2)c2ccc(-c3cc(N(CC)C4CCOCC4)c(C)c(C(=O)NCc4c(C)cc(C)[nH]c4=O)c3Cl)cc21` [Example 47, 2-chloro-N-((4,6-dimethyl-2-carbonyl-1,2-dihydropyridin-3-yl)methyl)-5-(ethyl(tetrahydro-2H-pyran-4-yl)amino)-6-methyl-3-(2-carbonyl-1-propyl-2′,3′.5′,6′-tetrahydrospiro[dihydroindole-3,4′-pyran]-6-yl)benzamide], the IC50 [3, 8] was 3.2 nM and the IC50 [4, 9] was 4.15 nM.
Work on `CCN(c1cc(-c2ccc3c(c2)N(CC(F)(F)C(F)(F)F)CC32CCOCC2)cc(C(=O)NCc2c(C)cc(C)[nH]c2=O)c1C)C1CCOCC1` [Example 51, N-((4,6-dimethyl-2-oxo-1,2-dihydropyridin-3-yl)methyl)-3-(ethyl(tetrahydro-2H-pyran-4-yl)amino)-2-methyl-5-(1-(2,2,3,3,3-pentafluoropropyl)-2′,3′,5′,6′-tetrahydrospiro[dihydroindole-3,4′-pyran]-6-yl)benzamide] yielded an inhibited tumor growth [2] of 88%.
Compound `CCN(c1cc(-c2ccc3c(c2)N(CCC(F)(F)F)C(=O)C32CCOCC2)c(Cl)c(C(=O)NCc2c(C)cc(C)[nH]c2=O)c1C)C1CCOCC1` [Example 53, 2-chloro-N-((4,6-dimethyl-2-oxo-1,2-dihydropyridin-3-yl)methyl)-5-(ethyl(tetrahydro-2H-pyran-4-yl)amino)-6-methyl-3-(2-oxo-1-(3,3,3-trifluoropropyl)-2′,3′,5′,6′-tetrahydrospiro[dihydroindole-3,4′-pyran]-6-yl)benzamide] has an IC50 [3, 8] of 1.56 nM and an IC50 [4, 9] of 1.72 nM.
With `CCCN1C(=O)C2(CCOCC2)c2ccc(-c3cc(N(CC)C4CCOCC4)c(C)c(C(=O)NCc4c(C)cc(C)[nH]c4=O)c3F)cc21` [Example 58] the IC50 [3, 6] was 0.58 nM, the IC50 [4, 7] was 0.74 nM and the AUC ([1]; rats, Intravenous-Dose 4 mg/kg) was 893 ng·h/mL. The half-life [1] was 1.42 h, the AUC ([1]; rats, Oral-Dose 20 mg/kg) was 1540 ng·h/mL and the Cmax ([1]; rats, Oral-Dose 20 mg/kg) was 500 ng/mL. The bioavailability [1, 5] was 34.5% and the inhibition in vivo at 150 mg/kg [2] was 89%.
Compound `CCN(c1cc(-c2ccc3c(c2)N(C(C)C)C(=O)C32CCOCC2)c(F)c(C(=O)NCc2c(C)cc(C)[nH]c2=O)c1C)C1CCOCC1` [Example 60, N-((4,6-dimethyl-2-oxo-1,2-dihydropyridin-3-yl)methyl)-3-(ethyl(tetrahydro-2H-pyran-4-yl)amino)-6-fluoro-5-(1-isopropyl-2-oxo-2′,3′,5′,6′-tetrahydrospiro[dihydroindole-3,4′-pyran]-6-yl)-2-methylbenzamide] has an IC50 [3, 6] of 2.1 nM and an IC50 [4, 7] of 4.35 nM.
Compound `CCN1C(=O)C2(CCOCC2)c2ccc(-c3cc(N(CC)C4CCOCC4)c(C)c(C(=O)NCc4c(C)cc(C)[nH]c4=O)c3F)cc21` [Example 62, N-((4,6-dimethyl-2-oxo-1,2-dihydropyridin-3-yl)methyl)-3-(ethyl(tetrahydro-2H-pyran-4-yl)amino)-5-(1-ethyl-2-oxo-2′,3′,5′,6′-tetrahydrospiro[dihydroindole-3,4′-pyran]-6-yl)-6-fluoro-2-methylbenzamide] has an IC50 [3, 6] of 0.27 nM and an IC50 [4, 7] of 0.58 nM.
In the case of `CCN(c1cc(-c2ccc3c(c2)N(C(C)C)CC32CCOCC2)c(F)c(C(=O)NCc2c(C)cc(C)[nH]c2=O)c1C)C1CCOCC1` [Example 63, N-((4,6-dimethyl-2-oxo-1,2-dihydropyridin-3-yl)methyl)-3-(ethyl(tetrahydro-2H-pyran-4-yl)amino)-6-fluoro-5-(1-isopropyl-2′,3′,5′,6′-tetrahydrospiro[dihydroindole-3,4′-pyran]-6-yl)-2-methylbenzamide], the IC50 [3, 6] is reported as 2.89 nM and the IC50 [4, 7] is reported as 3.76 nM.
With `CCN(c1cc(-c2ccc3c(c2)N(C)CC32CCOCC2)cc(C(=O)NCc2c(C)cc(C)[nH]c2=O)c1C)C1CCOCC1` [Example 72, N-((4,6-dimethyl-2-oxo-1,2-dihydropyridin-3-yl)methyl)-3-(ethyl(tetrahydro-2H-pyran-4-yl)amino)-2-methyl-5-(1-methyl-2′,3′,5′,6′-tetrahydrospiro[dihydroindole-3,4′-pyran]-6-yl)benzamide] the AUC ([1]; rats, Intravenous-Dose 4 mg/kg) was 890 ng·h/mL, the half-life [1] was 1.31 h and the AUC ([1]; rats, Oral-Dose 20 mg/kg) was 1080 ng·h/mL. The Cmax ([1]; rats, Oral-Dose 20 mg/kg) was 567 ng/mL and the bioavailability [1, 5] was 24.3%.
With `CCN(c1cc(-c2ccc3c(c2)NC(=O)C32CCOCC2)cc(C(=O)NCc2c(C)cc(C)[nH]c2=O)c1C)C1CCC(N(C)CCOC)CC1` (centres unmarked) [Example 99, N-((4,6-Dimethyl-2-oxo-1,2-dihydropyridin-3-yl)methyl)-3-(ethyl(4-((2-methoxyethyl)(methyl)amino)cyclohexyl)amino)-2-methyl-5-(2-oxo-2′,3′,5′,6′-tetrahydrospiro[dihydroindole-3,4′-pyran]-6-yl)benzamide] the IC50 [3, 8] was 3.47 nM and the IC50 [4, 9] was 4.15 nM.
For `CCN(c1cc(-c2ccc3c(c2)OCC32CCOCC2)cc(C(=O)NCc2c(C)cc(C)[nH]c2=O)c1C)C1CCOCC1` [Example 105, N-((4,6-Dimethyl-2-oxo-1,2-dihydropyridin-3-yl)methyl)-3-(ethyl(tetrahydro-2H-pyran-4-yl)amino)-2-methyl-5-(2′,3′,5′,6′-tetrahydro-2H-spiro[benzofuran-3,4′-pyran]-6-yl)benzamide], the IC50 [3, 8] was 2.98 nM and the IC50 [4, 9] was 3.68 nM.
